Data from PubChem BioAssay AID1508599 (Sanford-Burnham Center for Chemical Genomics, 2020).
Certain results were filed several times, with different values. They are shown here; other results are not. The source may hold further records. The values listed for one entry repeat one measurement in other runs, samples, wells, individuals or studies. What stands in brackets tells the records apart. Letters count within one entry.

Target: Baculoviral IAP repeat-containing protein 2 (Homo sapiens) (UniProt Q13490)
Assay: SMAC mimetics displacing peptide from cIAP1 – biochemical, SAR follow-up (AID 1508599)
Conditions: cIAP1 BIR3 / rhodamine-SMAC peptide fluorescence polarization

Sequence of UniProt Q13490 (Q13490 whole entry, looked up): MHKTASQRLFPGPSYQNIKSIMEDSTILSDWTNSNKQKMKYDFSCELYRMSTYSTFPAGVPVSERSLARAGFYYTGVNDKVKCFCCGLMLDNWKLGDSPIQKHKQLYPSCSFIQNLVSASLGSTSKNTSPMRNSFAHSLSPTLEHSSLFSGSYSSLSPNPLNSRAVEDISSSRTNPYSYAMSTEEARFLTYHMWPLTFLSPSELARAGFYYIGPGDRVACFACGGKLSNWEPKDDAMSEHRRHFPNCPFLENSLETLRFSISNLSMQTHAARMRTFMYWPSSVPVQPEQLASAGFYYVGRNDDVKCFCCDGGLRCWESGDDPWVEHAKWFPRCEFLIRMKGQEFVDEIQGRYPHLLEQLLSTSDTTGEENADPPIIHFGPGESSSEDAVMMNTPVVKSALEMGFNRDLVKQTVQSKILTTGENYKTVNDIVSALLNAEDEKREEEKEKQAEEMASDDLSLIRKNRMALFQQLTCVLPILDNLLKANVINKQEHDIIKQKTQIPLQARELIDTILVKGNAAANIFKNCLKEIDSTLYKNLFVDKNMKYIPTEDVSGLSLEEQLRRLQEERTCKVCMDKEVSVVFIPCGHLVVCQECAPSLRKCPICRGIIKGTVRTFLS

SMILES: CN[C@@H](C)C(=O)N[C@H]1Cc2ccc(O)cc2[C@H]2CC(C)(C)C(C(=O)N[C@@H]3CCCc4ccccc43)N2C1=O (stereo partly specified)
- IC50: 8.92 µM [sample A] and 114 nM [sample B]
